Out of some 390,000 compounds screened, about 930 (0.24%) were called active. The shares of active, inactive and inconclusive entries below differ from those in the screen. Calls follow the shape of the dose curve; as a rule, active = well fitted activation curve with a large enough effect; inconclusive = small, poorly fitted or top-dose-only effect; inactive = no such curve, though single readings can be large or run the other way. Potencies of inconclusive entries are doubtful fits and often do not repeat.
Assay: qHTS for Suppressors of FUS Proteinopathy: Primary screen using FUS-linked yeast assay; also: nearly all actives have a fitted effect of over 55% in size;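 as to growth rescue (activation): plate controls were DMSO vehicle for no effect and reference control for full effect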
Details: S. cerevisiae FUS-expressing, OD600, 24 h; Potency: growth rescue; growth rescue (activation): at 76.6 µM (top of the series)
In short: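 FUS-expressing yeast, raffinose-pregrown, induced in 2% galactose minimal medium at OD 0.005; compounds in a dilution series, 24hr at 30C. Growth restoration read as absorbance at 600 nm. CP55940 positive control, DMSO negative.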
In the case of CCOC(=O)c1c(S(=O)(=O)N2CCN(c3cc(Cl)ccc3C)CC2)c(C)n(C)c1C, the Potency is reported as inconclusive: 50.1 µM [activator, single point].
In the case of COc1ccccc1CSc1nc2n(n1)C(c1ccccc1)C(C(=O)Nc1ccc(C)cc1)=C(C)N2 (stereo unspecified), the “growth rescue (activation)” value is reported as inactive: 2.54%.
With Cc1cc(C(=O)N/N=C/c2c3ccccc3cc3ccccc23)n[nH]1 the Potency was inconclusive: 44.7 µM [activator, single point].
In the case of CCOC(CCNC(=O)CCC(=O)Nc1ccc2nc(N3CCN(C)CC3)cc(C)c2c1)OCC, the “growth rescue (activation)” value is reported as inactive: 22.8%.
With COC(=O)[C@]12C[C@H](CC(=O)NCCCCc3ccccc3)C(=O)N(Cc3ccccc3)C1=C[C@H](COCc1ccccc1)O[C@@H]2C the Potency was inconclusive: 25.1 µM [activator, single point].
With COc1ccc(NC(=O)Cn2c(SCc3c(F)cccc3Cl)nc3ccncc32)cc1OC the “growth rescue (activation)” value was inactive: -4.99%.
In the case of N#Cc1c(/N=C/c2cc3ccccc3s2)sc2c1CCC2, the Potency is reported as inconclusive: 50.1 µM [activator, single point].
For Cc1nc2ccc(C(=O)N3CCN(C(=O)C(Cl)Cl)CC3)cc2n1C1CCCC1, the “growth rescue (activation)” value was inactive: 11.5%.
In the case of COCCCNCCOCCOc1ccc(C)cc1[N+](=O)[O-], the “growth rescue (activation)” value is reported as inactive: 2.14%.
For CN1CCN(c2ccc(-c3nc(-c4ccccc4)no3)cc2[N+](=O)[O-])CC1, the “growth rescue (activation)” value was inactive: 38%.
For COc1cc(C2C3=C(CCCC3=O)Nc3[nH]n(-c4ccccc4)c(=O)c32)cc(OC)c1OC (stereo unspecified), the Potency was inconclusive: 31.6 µM [activator, single point].
With CC(=O)NN1C(=O)/C(=C/c2ccc(Br)o2)SC1=S the Potency was inconclusive: 56.2 µM [activator, single point].
In the case of CCN(CC)CCCNC(=O)c1ccc2c(c1)NC(=O)C(CS(=O)(=O)Cc1ccc(F)cc1Cl)N2 (stereo unspecified), the Potency is reported as active: 25.1 µM.
For CCN(C(=O)C1CCCN(c2nc(-c3ccc(OC)cc3)no2)C1)c1ccc(OC)cc1 (stereo unspecified), the Potency was inconclusive: 15.8 µM [activator, single point].
With CCC(=O)N1N=C(c2cccs2)CC1c1ccc(OC)cc1 (stereo unspecified) the “growth rescue (activation)” value was inactive: 20.7%.
In the case of CCOC(=O)c1c(NC(=O)COc2ccc(OC)cc2)sc(C(=O)N(CC)CC)c1C, the Potency is reported as inconclusive: 11.2 µM [activator, partial curve, poor fit].
In the case of CCC(C)(C)NC(=O)C(c1ccc(F)cc1)N(CCOC)C(=O)CCC(=O)Nc1nccs1 (stereo unspecified), the “growth rescue (activation)” value is reported as inactive: -5.5%.
For CCC1=Nc2cc(C(=O)N3CCC(C)CC3)ccc2Sc2ccc(C)cc21, the Potency was inconclusive: 28.2 µM [activator, single point].
With CCN(CC(=O)Nc1ccc(OC)cc1)C(=O)c1cccc(S(=O)(=O)N2CCN(c3ccccc3)CC2)c1 the Potency was inconclusive: 25.1 µM [activator, single point].
With CC(C)C(=O)N1CCN(c2ccc([N+](=O)[O-])c(NC(C)c3ccccc3)c2)CC1 (stereo unspecified) the Potency was inconclusive: 15.8 µM [activator, partial curve].
In the case of CC(=O)C(N=Nc1ccccc1)(Sc1nnc(-c2ccccc2)n1-c1ccccc1)C(=O)Nc1ccccc1 (stereo unspecified), the Potency is reported as inconclusive: 14.1 µM [activator, partial curve, poor fit].
For CC(C)c1ccc(NC(=O)C2Cc3c(-c4ccc(Cl)cc4)ccnc3O2)cc1 (stereo unspecified), the Potency was inconclusive: 25.1 µM [activator, single point].
For COc1cc(OC)cc(C(=O)NC(=S)NNC(=O)Cc2cccs2)c1, the “growth rescue (activation)” value was inactive: -5.98%.
With Cc1oc(-c2ccccc2F)nc1Cn1c(SCc2cccc(Cl)c2)nc2ccncc21 the Potency was inconclusive: 12.6 µM [activator, partial curve, poor fit].
With CCCCCOC(=O)C1=C(C)NC(=O)NC1c1ccccc1OCC (stereo unspecified) the Potency was inconclusive: 50.1 µM [activator, single point].
In the case of CC1=NN(c2cccc(C(=O)O)c2)C(=O)/C1=C\C=C/c1ccccc1, the “growth rescue (activation)” value is reported as inactive: 1.06%.
In the case of O=C(Nc1ccc(F)cc1)N1CCN(c2nc3ccccc3s2)CC1, the “growth rescue (activation)” value is reported as inactive: -9.58%.
For Cc1ccccc1CNC(=O)c1cc2ccccc2o1, the “growth rescue (activation)” value was inactive: -12.9%.
In the case of O=C(CSc1nnc(-c2ccc(S(=O)(=O)N3CCCC3)cc2)o1)NCc1ccco1, the Potency is reported as inconclusive: 28.2 µM [activator, partial curve, poor fit].
In the case of O=C(Cn1cnc([N+](=O)[O-])c1)Nc1cc(Oc2ccc(Cl)cc2Cl)cc([N+](=O)[O-])c1, the Potency is reported as inconclusive: 10 µM [activator, partial curve].
For Cc1ccc(S(=O)(=O)N2C[C@H]3[C@H]4C(=O)N(c5ccccc5)C(=O)[C@H]4C[C@H](OC(=O)Nc4cccs4)[C@@]3(O)C2)cc1, the Potency was inconclusive: 31.6 µM [activator, single point].
For COC(=O)[C@]12C[C@H](CC(=O)NCc3cccc4ccccc34)C(=O)N(Cc3ccc4c(c3)OCO4)C1=C[C@H](C(C)C)O[C@@H]2C1CC1, the Potency was active: 12.6 µM.
With COc1cc(NC(=O)CSc2ccc(-c3sc(C)nc3C)nn2)cc(OC)c1 the Potency was inconclusive: 50.1 µM [activator, single point].
In the case of COc1ccccc1CC(=O)O/N=C(\N)c1ccccn1, the “growth rescue (activation)” value is reported as inactive: -2.75%.
For CC(=O)N1CCc2cc(CNS(=O)(=O)c3ccccc3C(F)(F)F)ccc21, the “growth rescue (activation)” value was inactive: 7.97%.
With COc1ccc(C(C(=O)Nc2ccc(F)cc2)N2CCN(c3cccc(C(F)(F)F)n3)CC2)cc1 (stereo unspecified) the Potency was inconclusive: 10 µM [activator, partial curve].
With O=C(CSc1nc2ccccc2n1Cc1cccc(C(F)(F)F)c1)NCc1ccccc1 the “growth rescue (activation)” value was inactive: 9.8%.
For COC(=O)c1ccccc1NC(=O)Cc1nc(-c2ccc(OC)cc2)no1, the “growth rescue (activation)” value was inactive: 14.5%.
In the case of COc1ccc(-n2cnc3cc(C(=O)NCCC4=CCCCC4)ccc32)cc1, the Potency is reported as inconclusive: 44.7 µM [activator, single point].
In the case of CCCCCCCC(=O)C(C)C(=O)N(C)[C@H](Cc1ccc(OC)cc1)C(=O)N(C)[C@H](C(N)=O)C(C)C (stereo partly specified), the Potency is reported as inconclusive: 15.8 µM [activator, partial curve, poor fit].
In the case of CC1(C(=O)Nc2ccc3c(c2)OCO3)CCN1C(=O)C1(c2ccc(Cl)cc2)CC1 (stereo unspecified), the Potency is reported as inconclusive: 44.7 µM [activator, single point].
For COc1ccc(OC)c(NC(=O)CN(c2ccccc2OC)S(=O)(=O)c2ccc(C)cc2)c1, the Potency was inconclusive: 10 µM [activator, partial curve, poor fit].
In the case of O=C(NCc1ccccc1)C1=C[C@@H](c2coc3ccccc3c2=O)C[C@@H](OCc2ccc(CO)cc2)O1, the Potency is reported as inconclusive: 22.4 µM [activator, single point].
In the case of O=C(NC1CCCCN(Cc2cccc(Cl)c2)C1=O)c1cccc(F)c1 (stereo unspecified), the “growth rescue (activation)” value is reported as inactive: 24.7%.
In the case of CCN(c1ccc(C)cc1C)S(=O)(=O)c1nnc(NC(=O)c2ccc(F)cc2)s1, the Potency is reported as inconclusive: 28.2 µM [activator, single point].
With O=C(Nc1c[nH]c(=O)[nH]c1=O)c1cccc([N+](=O)[O-])c1 the Potency was inconclusive: 0.891 µM [activator, full curve, poor fit].
For CCOc1cc(/C=C2\C(=O)N(c3ccc(C(N)=O)cc3)N=C2C)ccc1OC(=O)c1cccs1, the Potency was inconclusive: 35.5 µM [activator, partial curve, poor fit].
With COc1cc(-c2nnc3n(CCc4ccccc4)c(=O)c4ccccc4n23)cc(OC)c1OC the “growth rescue (activation)” value was inactive: -1.79%.
With CCOC(=O)[C@@H]1[C@H]2COc3ccc(Br)cc3[C@@H]2N2C(=O)N(c3ccc(C(F)(F)F)cc3)C(=O)[C@]12C the Potency was inconclusive: 17.8 µM [activator, partial curve, poor fit].
For CCOC(=O)c1ccc(NC(=O)CSc2nnc(-c3cccs3)n2C)cc1, the “growth rescue (activation)” value was inactive: 10.8%.
With CC(=O)Nc1ccc(-c2ccnc3c2CC(C(=O)Nc2cccc(Oc4ccccc4)c2)O3)cc1 (stereo unspecified) the Potency was active: 11.2 µM.
With Cc1cc(C=C2C(=O)c3ccccc3C2=O)c(C)n1-c1ccccc1 the “growth rescue (activation)” value was inactive: 20.7%.
For O=S(=O)(c1ccccc1)n1nc(-c2ccc(Cl)cc2)nc1NCc1ccc(F)cc1, the “growth rescue (activation)” value was inactive: -3.77%.
For COCCN(C(=O)COC(=O)/C=C/c1ccc(C)o1)c1c(N)n(Cc2ccccc2)c(=O)[nH]c1=O, the Potency was inconclusive: 39.8 µM [activator, single point].
For COc1cccc(N2CCN(S(=O)(=O)c3ccc(-c4cc(C(F)(F)F)on4)s3)CC2)c1, the “growth rescue (activation)” value was inactive: 4.92%.
With COc1ccccc1CN(C)C(=O)c1cc(-c2cc(OC)c(OC)c(OC)c2)nc2ccccc12 the “growth rescue (activation)” value was inactive: 33.1%.
For COc1cc(-c2ccc3oc(-c4ccsc4)cc(=O)c3c2)cc(OC)c1OC, the “growth rescue (activation)” value was inactive: 43.8%.
With COc1cc(C=NNC(=S)Nc2ccc(S(=O)(=O)N3CCCCC3)cc2)cc(OC)c1OC the Potency was inconclusive: 50.1 µM [activator, single point].
For O=C(Oc1ccc2c(=O)c(Oc3ccc4ccccc4c3)coc2c1)c1cccnc1, the “growth rescue (activation)” value was inactive: 17%.
For COc1ccc(C(=O)c2ccc(OC)c(OC)c2)cc1OC, the “growth rescue (activation)” value was inactive: 25.5%.
With CN1CCc2nc(SCC(=O)Nc3cccc(F)c3)c(C#N)c(-c3cccs3)c2C1 the Potency was inconclusive: 15.8 µM [activator, partial curve, poor fit].
With CC(=O)N1CCN(c2nc(-c3cccs3)nc3ccccc23)CC1 the “growth rescue (activation)” value was inactive: 8.04%.
With CSc1ccc(CCNC(=O)CN2C(=O)COc3ccc(S(=O)(=O)N4CCCC4)cc32)cc1 the “growth rescue (activation)” value was inactive: 23.9%.
For CC1(C(=O)Nc2cccc(C#N)c2)CCN1C(=O)C/C=C/c1ccccc1 (stereo unspecified), the Potency was inconclusive: 50.1 µM [activator, single point].
With COc1ccc(N(C)C(=O)c2ccc3c(Cl)c4c(nc3c2)CCCC4)c(OC)c1 the Potency was inconclusive: 35.5 µM [activator, single point].
With CCOc1ccc(NC(=O)c2cnn3c2NC(c2ccccc2)=CC3c2cccc(OC)c2OC)cc1 (stereo unspecified) the Potency was active: 22.4 µM.
Potency is read from the fitted curve at half-maximal effect; tags tell the direction and shape of the fitted curve.
